From the supplement of paper PMC10498489
About 330 (14%) of roughly 2,300 compounds showed activity.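 The calls were made as follows: active = median modified Z-score above 1.96; inactive = 1.96 or below.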 Only a part is listed here, and it is no random draw.

What follows are compounds tested on HepG2 Srxn1-GFP reporter cells (+30 nM CDDO-Me) (assay: Srxn1-GFP intensity median modified Z-score relative to plate median; higher = stronger NRF2 / oxidative stress reporter activation, active = hit call of the paper). Settings: 10 µM; exposure time: 24h.
Procedure, shortened: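 HepG2 Srxn1-GFP BAC reporter cells were seeded at 20,000 per well in 96-well plates and co-exposed for 24 h to compound at 10 μM and an NRF2 activator at 30 nM, with DMSO at ≤0.1%, in three replicate plates. Cells were fixed with formaldehyde, stained with Hoechst and imaged by confocal microscopy, and cytoplasmic GFP was measured per cell, with images holding under 100 cells discarded. The reported value is the median over replicates of each plate's modified Z-score of GFP intensity. For this score, scaling used 1.4826 × median absolute deviation.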

Srxn1-GFP intensity median modified Z-score, active:
CC(=O)O[C@@H]1CC2C(C)(C)C(=O)CC[C@]2(C)C2CC[C@@]3(C)[C@H](c4ccoc4)OC(=O)C4OC43[C@@]21C (stereo not given in full) [euspeclibcmpd1587] 32.1
CCN(CC)CCc1nc(-c2ccccc2)no1 [euspeclibcmpd2430] 10.5
COc1c(C/C=C(\C)CCC(=O)OCCN2CCOCC2)c(O)c2c(O)occ2c1C [euspeclibcmpd688] 5.22

Srxn1-GFP intensity median modified Z-score, inactive:
Cc1c(N(C)CS(=O)(=O)O)c(=O)n(-c2ccccc2)n1C [euspeclibcmpd2168] -0.462
C[C@@H]1O[C@@H](O[C@H]2[C@H](Oc3cc(O)c4c(=O)cc(-c5ccc(O)cc5)oc4c3)O[C@H](CO)[C@@H](O)[C@@H]2O)[C@H](O)[C@H](O)[C@H]1O [euspeclibcmpd1319] 0.395
O=S(=O)(O)NC1CCCCC1 [euspeclibcmpd2052] -0.268
O=S(=O)(O)NC1CCCCC1 [euspeclibcmpd2459] 0.0532
COc1ccccc1OCC(O)CN1CCN(CC(=O)Nc2c(C)cccc2C)CC1 (stereo not given) [euspeclibcmpd755] -0.121
CCCNCC(O)COc1ccccc1C(=O)CCc1ccccc1 (stereo not given) [euspeclibcmpd641] 0.9
CN(C)c1nc(N(C)C)nc(N(C)C)n1 [euspeclibcmpd517] 0.935
O=C(O)c1cc(-c2ccccc2)nc2ccccc12 [euspeclibcmpd1182] 0.423
CC(C)NCC(O)c1ccc2ccccc2c1 (stereo not given) [euspeclibcmpd1142] -0.55
c1ccc([C@H]2CN3CCSC3=N2)cc1 [euspeclibcmpd2246] 0.727
CN(C)CC/C=C1\c2ccccc2Sc2ccc(Cl)cc21 [euspeclibcmpd538] -1.04
Cc1c(O)c(=O)ccn1C [euspeclibcmpd1185] -0.715
O=C(/C=C/C(=O)Oc1ccccc1C(=O)O)Oc1ccccc1C(=O)O [euspeclibcmpd1772] -0.354
COc1ccc(C2CNC(=O)C2)cc1OC1CCCC1 (stereo not given) [euspeclibcmpd1287] -0.259
O=c1c(O)c(-c2ccccc2)oc2cc(O)ccc12 [euspeclibcmpd1652] 0.171
COc1cc(-c2coc3cc(O[C@@H]4O[C@H](CO)[C@@H](O)[C@H](O)[C@H]4O)c(OC)c(O)c3c2=O)cc(O)c1OC [euspeclibcmpd1635] -0.457
COc1ccc(-c2cc(=O)c3ccccc3o2)cc1 [euspeclibcmpd2301] -0.395
